# Assay results published in the supplement of paper PMC3334620.
# Over roughly 33,000 sequences, “E-score (-0.5 to 0.5)” has its median near -0.012; the highest 2% begin near 0.27. This is one part of the list.
# Biological target: T1, Vhr1 (UniProt P40522)
# T1 sequence: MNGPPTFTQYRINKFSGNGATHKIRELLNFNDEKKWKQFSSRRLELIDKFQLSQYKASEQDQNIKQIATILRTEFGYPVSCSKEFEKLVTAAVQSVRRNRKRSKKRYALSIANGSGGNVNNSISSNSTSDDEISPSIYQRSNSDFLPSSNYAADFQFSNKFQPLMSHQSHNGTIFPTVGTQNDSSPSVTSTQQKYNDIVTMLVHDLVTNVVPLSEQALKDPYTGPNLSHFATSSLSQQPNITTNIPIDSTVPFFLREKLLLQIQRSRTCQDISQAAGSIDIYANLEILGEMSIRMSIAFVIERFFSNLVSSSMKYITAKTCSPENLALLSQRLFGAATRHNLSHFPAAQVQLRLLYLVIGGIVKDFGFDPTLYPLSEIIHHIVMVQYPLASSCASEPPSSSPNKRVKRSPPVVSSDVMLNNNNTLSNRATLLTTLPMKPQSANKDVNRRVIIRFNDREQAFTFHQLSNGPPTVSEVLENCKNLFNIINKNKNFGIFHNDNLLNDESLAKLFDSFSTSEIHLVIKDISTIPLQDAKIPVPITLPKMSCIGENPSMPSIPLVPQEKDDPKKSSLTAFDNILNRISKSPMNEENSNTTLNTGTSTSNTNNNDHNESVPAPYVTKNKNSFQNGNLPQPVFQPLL
# Test: PBM E-score (8-mer binding enrichment) (E-score (-0.5 to 0.5)); higher = stronger / more preferred TF binding; most listed sequences are background and not binding sites
# Details: protein concentration: 200 nM; construct: GST-full length
# Outline: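 For each ungapped eight-base word taken together with its reverse complement, the Universal PBM Analysis Suite assigned an E-score. Binding data came from GST-tagged yeast transcription factors, applied at about 100-200 nM, on universal all-10-mer Agilent arrays made double-stranded by primer extension. Fluorescent anti-GST marked bound protein, and scans were normalised with masliner.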
row,Sequence,PBM E-score
1,AAGCTGAT,0.135
2,CCTATAGA,-0.155
3,CCCCGAAG,-0.0601
4,ATGTTTCA,0.0295
5,GAAGGGAC,-0.00768
6,AAGACCAT,-0.0248
7,CCGGGACC,-0.0973
8,TCGCGTCA,0.0931
9,CCCGGAGC,0.12
10,GTCCATTA,0.0235
11,ATGTCTGC,0.0028
12,AACGACCC,0.0189
13,GCACTATA,0.0862
14,CCGCCATA,0.161
15,CATCTCCG,0.161
16,CCCACTCC,0.132
17,AAGCCACA,-0.126
18,ATTCTTCC,-0.265
19,GCACACCA,0.23
20,AAACTGGG,-0.192
21,CTATGCCC,0.103
22,ATTACGCA,0.0913
23,CGAGGTCC,-0.00823
24,AAACCTCT,-0.135
25,ATTCCATG,0.247

row,Sequence,PBM E-score
1,GACCATCC,-0.0251
2,GATATACA,0.113
3,AGAGTCCG,-0.0962
4,ACCTTGTC,-0.161
5,AGAGTTCC,-0.264
6,ACTCCGTG,0.188
7,CGCGATAA,-0.0316
8,CAGATGGA,0.0627
9,ACTACACA,0.327
10,AACAGGTC,-0.124
11,ATGAAAAC,0.201
12,TGACAGAA,-0.227
13,CCGATAAA,-0.158
14,CACAGACA,0.0563
15,CTCCTAAG,-0.217
16,GGGTGATA,0.128
17,AGGGGCCG,-0.132
18,ATGCATTG,0.00189
19,ATTTTCTC,-0.114
20,AGTAGCCA,0.00989
21,AGATTCGA,-0.0165
22,AAAGACCT,-0.0845
23,GATTGATA,0.167
24,CATGCTGC,0.132
25,CTGATAGA,0.0661

row,Sequence,PBM E-score
1,CTCATGCA,0.0917
2,TTATTAAA,0.0393
3,GGCATGCC,0.211
4,CTTGTGAA,-0.0681
5,AACGTCAA,-0.269
6,AATATGGT,0.27
7,ATAGGACC,-0.21
8,AAACGCCA,0.183
9,CGTAGTCC,-0.0429
10,AAGGTGCA,-0.254
11,CCCTTATA,-0.127
12,AAGGAAAG,-0.175
13,CTCAAGTC,-0.0821
14,AACGGGGC,-0.0723
15,GGCTCACC,0.196
16,TGCAACAA,-0.104
17,GTATTAGA,-0.0133
18,GCGGAGCC,0.112
19,TCAAACCA,0.155
20,ACCAGCAG,-0.0378
21,CACTCTAC,-0.0345
22,CGGTGGTC,0.072
23,AGCCAGGA,-0.00297
24,ACATTCAT,0.0173
25,ATCGGGCA,-0.042

row,Sequence,PBM E-score
1,CTCTATCC,-0.216
2,CTTGCTCC,-0.0557
3,GTCGACTA,0.23
4,GGTTCTAC,-0.184
5,AATTCAAG,-0.17
6,ACTTGGGA,-0.155
7,GCTCAAAA,-0.0436
8,ATAAGATG,0.104
9,ATACCACC,0.186
10,CATGCTAG,0.0281
11,CATATGTC,0.0497
12,ACCTACGA,0.0559
13,CCAGTCGC,0.13
14,AGTGCCGC,-0.0826
15,CAGGCCTA,-0.016
16,CCTCAGAA,-0.221
17,CACTGATA,0.0775
18,AGAGTTCG,0.171
19,GTGACGTA,-0.03
20,AGTTCCAG,-0.102
21,CGTAAGGA,-0.205
22,ATCGATGA,0.159
23,CCTCTCCC,-0.108
24,CGGTAACG,-0.108
25,GGCGAGCC,0.0685

row,Sequence,PBM E-score
1,CGGCCTAA,0.0238
2,CTAGCGAA,-0.174
3,AGATGAAA,0.015
4,CATCGATC,0.016
5,CAGACGCA,0.211
6,GATGGGAA,-0.0859
7,CGCCCCGA,0.168
8,AGGTTAAG,-0.202
9,CCCCAACA,-0.164
10,CCTGAAGG,-0.215
11,GCACAAAC,0.00169
12,CAAGTCAA,-0.0643
13,ACAGTCCA,0.0672
14,TAATGCTA,0.0527
15,GGTTCCTA,0.0497
16,ACAAGAGG,-0.0584
17,GATGGGCA,0.134
18,ATCTCCAG,-0.00087
19,CGCTTCCC,0.11
20,TAGTAGCA,-0.0122
21,AAAATCTG,0.0328
22,AAAGCACC,-0.217
23,ATCTGTGA,-0.00754
24,CGTATGAG,0.0897
25,CAACCATG,0.217

row,Sequence,PBM E-score
1,AGCTTGAG,-0.209
2,CCGCGGCA,0.127
3,GTGGCTCA,0.277
4,CCGGGGCA,-0.0498
5,CCATTCAC,0.0874
6,AAAACCCT,-0.0964
7,AGCCCCAT,0.0303
8,CCATGGGA,0.0741
9,CATGAGAA,0.0543
10,CCTGGGTA,0.139
11,CTTCCGTC,-0.104
12,ACCGTATG,0.153
13,ACCAAGAT,-0.0296
14,AGTGAAGG,0.0621
15,CCACCAAA,0.0455
16,CGTTTACA,-0.19
17,CCATCTAG,-0.0856
18,GCTGCTAC,-0.0326
19,GATACTGA,0.159
20,CCCATTAC,0.141
21,GGGCCGAC,0.0635
22,ACTCGGCG,0.115
23,CTTGCTAA,-0.211
24,CACACCGA,0.246
25,GGTTGACA,-0.102

row,Sequence,PBM E-score
1,ACATAACT,0.25
2,CAGGTAAA,-0.0451
3,ACCAACCA,0.163
4,CAGGGACC,-0.284
5,CGTCGTTC,0.0639
6,CATGCGAG,0.0796
7,GCTGAGCC,0.28
8,AGCTTCAG,-0.179
9,AAGAAAGG,-0.134
10,AGAAAATG,-0.163
11,ACAGGGAT,0.188
12,ATCGAAGC,-0.0583
13,ATGACTAA,0.42
14,CCTGGGGA,-0.164
15,CGGTGTGA,0.265
16,GAATGCGC,0.00347
17,GTAGACAC,0.112
18,ACCGATGC,-0.0206
19,CAAGAGCG,0.0553
20,CATTCAGG,-0.044
21,AATGTGGA,0.0331
22,AGAGCGGC,-0.0566
